The source of these data is the supplement of paper PMC4967469.

By IC50 is meant the dose at which the fit gives 50% viability; a limit (>, <) means that the fit lies beyond the doses tested. AUC, from the same fit, is the share of area under the viability curve across the 256-fold dose range: 1 means no effect, lower means more sensitive. For some of these results: A top dose marked as inferred comes from the curve model; the source does not state it.

What all share (assay): Viability of human cancer cell lines after 72 h of drug (GDSC screen)
Compound in assay [1]: COc1cc(C(=O)NC2CCN(C)CC2)ccc1Nc1ncc2c(n1)N(C1CCCC1)C(C)CC(=O)N2C [NPK76-II-72-1]
To be noted: top dose 10.24 µM; top dose inferred. As for the experimental part:
(§1)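 Human cancer cell lines in 384-well plates, medium with 10% serum, drug for 72 h over a 256-fold dose range (nine 2-fold or five 4-fold steps up to the top dose). Adherent lines were fixed and stained with the nucleic acid dye Syto60, suspension lines read with resazurin; signal relative to control wells, capped at 0 and 100%. One two-parameter sigmoid per drug and line, fitted in a mixed model over all curves with the slope shared within a line.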

Compound in assay [2]: COc1ccc(C(=O)CC2(O)C(=O)Nc3c(Cl)ccc(Cl)c32)cc1 [YK 4-279]
Conditions: top dose 10 µM. As for the experimental part:
as §1

Compound in assay [3]: C=C(c1ccc(C(=O)O)cc1)c1cc2c(cc1C)C(C)(C)CCC2(C)C [Bexarotene]
Conditions: top dose 8 µM. The method, then: as §1

Compound in assay [4]: NC(=O)Nc1cc(-c2cccc(F)c2)sc1C(=O)N[C@H]1CCCNC1 [AZD7762]
Conditions: top dose 2 µM. As for the experimental part: as §1

Compound in assay [5]: Cc1ccc2nc(NCCN)c3ncc(C)n3c2c1 [BMS-345541]
To be noted: top dose 16 µM. As for the experimental part: as §1

Compound in assay [6]: Oc1nc(-c2ccc(C(F)(F)F)cc2)nc2c1CSCC2 [XAV 939]
Conditions: top dose 5 µM; top dose inferred. As for the experimental part:
as §1

Compound in assay [7]: O=C(O)c1ccc(-c2c[nH]c3ncc(-c4ccccc4)cc23)cc1C1CCCC1 [GSK-650394]
Conditions: top dose 16 µM; top dose inferred. The method, then: as §1

For the cell line “CCRF-CEM (lymphoblastic leukaemia, suspension)”, the AUC in assay [1] was 0.487; in assay [2], 0.786; in assay [3] it was 0.905; in assay [4], 0.338; in assay [5], 0.886; in assay [6], 0.985. For the same cell line, the 50% inhibitory concentration (IC50) is 0.593 µM in assay [1]; 3.59 µM in assay [2]; 7.77 µM in assay [3]; 0.0483 µM in assay [4]; 12.8 µM in assay [5]; greater than 5 µM in assay [6].
For the cell line “CMK (acute myeloid leukaemia, suspension)”, the AUC in assay [7] was determined as 0.711; in assay [1], 0.695; in assay [2], 0.701; in assay [3] it was 0.882; in assay [4], 0.759; in assay [5] it was 0.746. Also, in assay [6], the AUC was 0.977. Also, the half-maximal inhibitory concentration (IC50) was found to be 3.53 µM in assay [7]; 2.04 µM in assay [1]; 2.07 µM in assay [2]; 6.23 µM in assay [3]; 0.602 µM in assay [4]; 4.42 µM in assay [5]. Further, the 50% inhibitory concentration (IC50) in assay [6] was greater than 5 µM.
Consider COLO-205 (large intestine, suspension), for which the AUC in assay [7] is 0.778; in assay [1] it was 0.82; in assay [2], 0.848; in assay [3] it was 0.966; in assay [4], 0.839; in assay [5], 0.91. For the same cell line, the AUC in assay [6] is 0.984. The 50% inhibitory concentration (IC50) was 6.4 µM in assay [7]; 5.79 µM in assay [1]; 7.28 µM in assay [2]; greater than 8 µM in assay [3]; 1.34 µM in assay [4]; greater than 16 µM in assay [5]. For the same cell line, in assay [6], the concentration for half-maximal inhibition (IC50) is greater than 5 µM.
Consider COLO-800 (melanoma, adherent), for which the AUC in assay [7] worked out at 0.852; in assay [1], 0.978; in assay [2] it was 0.54; in assay [3], 0.987; in assay [4], 0.762; in assay [5], 0.868. Further, in assay [6], the AUC was 0.982. Further, the IC50 in assay [7] is 11.8 µM; in assay [1], greater than 10.2 µM; in assay [2], 0.799 µM; in assay [3] it was greater than 8 µM; in assay [4], 0.697 µM; in assay [5] it was 14 µM. The half-inhibitory concentration (IC50) in assay [6] was greater than 5 µM.
Regarding Calu-3 (lung adenocarcinoma, adherent), the AUC in assay [7] was 0.791; in assay [1], 0.978; in assay [2], 0.812; in assay [3], 0.962; in assay [4], 0.932; in assay [5] it was 0.972. The AUC in assay [6] turned out to be 0.917. Further, the IC50 is 9.32 µM in assay [7]; greater than 10.2 µM in assay [1]; 7.18 µM in assay [2]; greater than 8 µM in assay [3]; greater than 2 µM in assay [4]; greater than 16 µM in assay [5]. Besides, the IC50 in assay [6] was greater than 5 µM.
For the cell line Calu-6 (lung adenocarcinoma, adherent), the AUC in assay [7] worked out at 0.951; in assay [1] it was 0.819; in assay [2], 0.674; in assay [3], 0.953; in assay [4] it was 0.815; in assay [5], 0.937. In assay [6], the AUC was 0.93. Also, the IC50 in assay [7] was greater than 16 µM; in assay [1], 6.97 µM; in assay [2], 2.06 µM; in assay [3], greater than 8 µM; in assay [4], 1.31 µM; in assay [5] it was greater than 16 µM. Moreover, in assay [6], the IC50 is greater than 5 µM.
Turning to Capan-2 (pancreas, adherent), the AUC was 0.984 in assay [7]; 0.982 in assay [1]; 0.887 in assay [2]; 0.983 in assay [3]; 0.87 in assay [4]; 0.964 in assay [5]. In assay [6], the AUC is 0.769. Also, the IC50 in assay [7] is greater than 16 µM; in assay [1], greater than 10.2 µM; in assay [2], greater than 10 µM; in assay [3], greater than 8 µM; in assay [4] it was greater than 2 µM; in assay [5], greater than 16 µM. Moreover, the 50% inhibitory concentration (IC50) in assay [6] turned out to be 2.3 µM.
For the cell line DB (B-cell lymphoma, suspension), the AUC amounted to 0.934 in assay [7]; 0.659 in assay [1]; 0.626 in assay [2]; 0.954 in assay [3]; 0.84 in assay [4]; 0.73 in assay [5]. Further, the AUC in assay [6] stood at 0.81. The IC50 is greater than 16 µM in assay [7]; 1.88 µM in assay [1]; 1.46 µM in assay [2]; greater than 8 µM in assay [3]; 1.64 µM in assay [4]; 4.96 µM in assay [5]. Besides, the half-maximal inhibitory concentration (IC50) in assay [6] amounted to 3.05 µM.
For the cell line “DMS-114 (small cell lung carcinoma, adherent)”, the AUC came out at 0.972 in assay [7]; 0.779 in assay [1]; 0.698 in assay [2]; 0.972 in assay [3]; 0.908 in assay [4]; 0.886 in assay [5]. Besides, the AUC in assay [6] is 0.983. Moreover, the IC50 in assay [7] is greater than 16 µM; in assay [1], 4.86 µM; in assay [2], 2.47 µM; in assay [3], greater than 8 µM; in assay [4] it was greater than 2 µM; in assay [5], greater than 16 µM. Further, the half-maximal inhibitory concentration (IC50) in assay [6] was greater than 5 µM.
As to “HL-60 (acute myeloid leukaemia, suspension)”, the AUC in assay [7] worked out at 0.94; in assay [1], 0.847; in assay [2], 0.857; in assay [4] it was 0.641; in assay [5], 0.883; in assay [6], 0.98. Besides, the IC50 is greater than 16 µM in assay [7]; 6.43 µM in assay [1]; 6.82 µM in assay [2]; 0.294 µM in assay [4]; 14.1 µM in assay [5]; greater than 5 µM in assay [6].

In general, IC50 refers to the concentration needed to halve the response being measured.
